No constants are given. Whether binding was seen depends on the method and setting. For some of these results: In cells and extracts the contact can be indirect. Some results given as binding are weak or reduced against the parent protein; the word gives no strength. For some of these results: Sequences can lack the tags named with a protein.
Key:
[1] = target: T1, WDR33 (residues 1-576) with C-terminal StrepII tag, bait of recombinant mPSF (human) (UniProt Q9C0J8); experiment: co-purification of co-expressed subunits; subunits co-expressed in insect cells from one pBig1 vector; complex held by the StrepII tag of one subunit on Strep-Tactin beads (300 mM NaCl), then anion exchange and, for most, size exclusion; SDS-PAGE of the purified complex
T1 sequence: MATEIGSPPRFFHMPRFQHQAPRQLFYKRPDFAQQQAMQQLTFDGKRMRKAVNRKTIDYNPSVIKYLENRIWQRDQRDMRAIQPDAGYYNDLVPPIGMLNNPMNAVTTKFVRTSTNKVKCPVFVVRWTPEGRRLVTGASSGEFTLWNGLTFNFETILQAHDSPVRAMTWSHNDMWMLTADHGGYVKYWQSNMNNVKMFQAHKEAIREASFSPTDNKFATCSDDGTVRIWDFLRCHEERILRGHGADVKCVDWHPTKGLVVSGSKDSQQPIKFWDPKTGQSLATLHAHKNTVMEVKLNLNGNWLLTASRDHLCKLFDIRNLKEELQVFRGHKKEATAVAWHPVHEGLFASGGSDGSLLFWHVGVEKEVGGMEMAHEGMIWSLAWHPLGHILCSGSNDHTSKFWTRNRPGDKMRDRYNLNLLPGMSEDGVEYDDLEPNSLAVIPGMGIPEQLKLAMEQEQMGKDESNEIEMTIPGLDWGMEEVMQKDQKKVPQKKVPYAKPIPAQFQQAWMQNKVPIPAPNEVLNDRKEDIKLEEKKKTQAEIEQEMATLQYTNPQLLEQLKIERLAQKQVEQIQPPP

The chains behind the UniProt entries cited, without tags or fusion partners. Where a name states a change or a piece, a line headed by the entry shows the natural chain unless it says otherwise. A line that says so, or that is headed by a name, gives the form on record, which may keep a tag or linker.
UniProt Q9P2I0: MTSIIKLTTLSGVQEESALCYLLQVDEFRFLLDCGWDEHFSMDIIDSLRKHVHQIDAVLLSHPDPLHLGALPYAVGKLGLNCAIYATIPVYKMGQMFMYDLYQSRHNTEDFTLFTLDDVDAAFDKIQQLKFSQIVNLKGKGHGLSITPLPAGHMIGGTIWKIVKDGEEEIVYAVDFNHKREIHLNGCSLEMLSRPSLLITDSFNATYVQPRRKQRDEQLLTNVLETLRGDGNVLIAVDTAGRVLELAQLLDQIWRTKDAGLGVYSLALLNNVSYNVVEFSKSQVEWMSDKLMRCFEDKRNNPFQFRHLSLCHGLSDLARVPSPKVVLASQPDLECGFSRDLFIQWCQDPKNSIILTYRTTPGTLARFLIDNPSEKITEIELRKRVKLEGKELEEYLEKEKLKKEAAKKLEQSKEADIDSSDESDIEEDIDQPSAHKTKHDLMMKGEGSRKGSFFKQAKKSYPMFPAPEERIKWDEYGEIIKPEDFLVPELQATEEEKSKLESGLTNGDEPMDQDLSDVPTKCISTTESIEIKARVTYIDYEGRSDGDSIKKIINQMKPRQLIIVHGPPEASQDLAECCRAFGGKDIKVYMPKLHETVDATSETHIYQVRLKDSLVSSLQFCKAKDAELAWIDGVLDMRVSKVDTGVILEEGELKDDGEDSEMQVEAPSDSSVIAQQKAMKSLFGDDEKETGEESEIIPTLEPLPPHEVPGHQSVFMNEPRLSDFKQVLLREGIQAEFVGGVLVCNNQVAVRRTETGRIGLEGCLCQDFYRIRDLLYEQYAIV
UniProt Q92797: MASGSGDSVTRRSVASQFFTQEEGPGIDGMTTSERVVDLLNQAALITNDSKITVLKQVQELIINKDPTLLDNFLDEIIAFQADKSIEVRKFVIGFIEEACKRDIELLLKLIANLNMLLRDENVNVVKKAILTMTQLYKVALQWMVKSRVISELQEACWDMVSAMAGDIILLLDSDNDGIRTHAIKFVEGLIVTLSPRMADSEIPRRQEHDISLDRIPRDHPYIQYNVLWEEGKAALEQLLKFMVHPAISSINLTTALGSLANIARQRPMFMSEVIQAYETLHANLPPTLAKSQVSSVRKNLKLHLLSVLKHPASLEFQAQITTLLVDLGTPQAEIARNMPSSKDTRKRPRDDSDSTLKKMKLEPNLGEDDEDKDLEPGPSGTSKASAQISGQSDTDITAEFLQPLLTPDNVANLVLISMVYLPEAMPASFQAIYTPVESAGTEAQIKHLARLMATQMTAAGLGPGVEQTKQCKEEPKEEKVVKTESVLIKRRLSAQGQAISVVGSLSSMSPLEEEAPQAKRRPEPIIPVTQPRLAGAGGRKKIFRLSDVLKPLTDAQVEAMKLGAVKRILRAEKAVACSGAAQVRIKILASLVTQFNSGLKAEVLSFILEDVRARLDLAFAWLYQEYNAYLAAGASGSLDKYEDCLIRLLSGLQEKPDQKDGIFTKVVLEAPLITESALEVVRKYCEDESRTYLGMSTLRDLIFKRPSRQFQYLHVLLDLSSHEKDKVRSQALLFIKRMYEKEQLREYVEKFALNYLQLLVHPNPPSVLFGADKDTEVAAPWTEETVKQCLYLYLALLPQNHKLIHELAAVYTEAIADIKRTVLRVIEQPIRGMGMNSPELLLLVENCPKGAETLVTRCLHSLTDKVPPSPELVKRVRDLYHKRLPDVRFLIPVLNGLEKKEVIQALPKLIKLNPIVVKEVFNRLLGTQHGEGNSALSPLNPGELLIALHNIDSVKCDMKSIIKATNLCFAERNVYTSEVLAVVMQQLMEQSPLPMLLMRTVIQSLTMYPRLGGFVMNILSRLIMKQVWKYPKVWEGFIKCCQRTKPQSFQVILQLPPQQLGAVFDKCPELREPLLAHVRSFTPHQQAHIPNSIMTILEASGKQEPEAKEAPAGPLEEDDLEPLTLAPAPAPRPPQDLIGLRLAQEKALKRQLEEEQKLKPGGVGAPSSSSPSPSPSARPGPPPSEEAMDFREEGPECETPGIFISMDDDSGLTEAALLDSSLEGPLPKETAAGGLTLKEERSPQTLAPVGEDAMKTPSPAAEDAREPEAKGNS
UniProt Q10570: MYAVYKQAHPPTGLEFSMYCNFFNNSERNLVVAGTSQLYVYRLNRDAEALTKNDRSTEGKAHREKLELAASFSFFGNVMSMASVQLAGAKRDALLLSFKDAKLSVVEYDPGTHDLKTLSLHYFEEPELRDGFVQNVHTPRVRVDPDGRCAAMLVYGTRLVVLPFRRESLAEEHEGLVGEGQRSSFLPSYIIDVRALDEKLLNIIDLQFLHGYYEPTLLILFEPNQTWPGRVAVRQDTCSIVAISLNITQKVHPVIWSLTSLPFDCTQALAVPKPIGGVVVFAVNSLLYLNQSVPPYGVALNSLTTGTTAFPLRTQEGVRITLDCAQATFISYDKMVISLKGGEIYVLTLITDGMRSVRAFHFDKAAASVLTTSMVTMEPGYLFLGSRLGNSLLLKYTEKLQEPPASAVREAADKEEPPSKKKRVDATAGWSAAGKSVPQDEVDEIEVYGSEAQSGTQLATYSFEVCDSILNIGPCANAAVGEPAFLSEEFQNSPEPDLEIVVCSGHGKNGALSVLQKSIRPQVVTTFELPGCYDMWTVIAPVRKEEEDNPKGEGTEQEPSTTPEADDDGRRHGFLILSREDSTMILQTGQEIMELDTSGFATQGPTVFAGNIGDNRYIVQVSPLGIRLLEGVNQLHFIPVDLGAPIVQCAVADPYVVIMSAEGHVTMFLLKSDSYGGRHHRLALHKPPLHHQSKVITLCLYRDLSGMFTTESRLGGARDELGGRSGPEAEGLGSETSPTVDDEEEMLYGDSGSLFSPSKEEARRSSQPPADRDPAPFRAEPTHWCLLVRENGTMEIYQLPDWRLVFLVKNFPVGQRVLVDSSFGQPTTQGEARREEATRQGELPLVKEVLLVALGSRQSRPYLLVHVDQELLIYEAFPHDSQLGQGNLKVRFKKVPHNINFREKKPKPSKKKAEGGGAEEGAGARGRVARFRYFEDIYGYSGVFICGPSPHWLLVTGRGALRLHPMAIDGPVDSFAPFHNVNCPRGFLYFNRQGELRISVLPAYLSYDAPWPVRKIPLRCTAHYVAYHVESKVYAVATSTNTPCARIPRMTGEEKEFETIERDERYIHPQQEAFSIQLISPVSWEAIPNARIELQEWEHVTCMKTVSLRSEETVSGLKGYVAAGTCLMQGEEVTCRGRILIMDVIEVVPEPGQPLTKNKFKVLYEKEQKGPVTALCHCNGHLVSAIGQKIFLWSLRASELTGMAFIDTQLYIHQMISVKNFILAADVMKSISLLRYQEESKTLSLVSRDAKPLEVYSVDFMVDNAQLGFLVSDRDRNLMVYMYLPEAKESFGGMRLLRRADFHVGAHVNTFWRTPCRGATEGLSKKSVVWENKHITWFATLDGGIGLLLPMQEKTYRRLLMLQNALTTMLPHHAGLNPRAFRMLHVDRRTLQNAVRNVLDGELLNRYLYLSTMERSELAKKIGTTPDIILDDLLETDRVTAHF
CPSF30 isoform 2, recombinant (O95639-2, form named): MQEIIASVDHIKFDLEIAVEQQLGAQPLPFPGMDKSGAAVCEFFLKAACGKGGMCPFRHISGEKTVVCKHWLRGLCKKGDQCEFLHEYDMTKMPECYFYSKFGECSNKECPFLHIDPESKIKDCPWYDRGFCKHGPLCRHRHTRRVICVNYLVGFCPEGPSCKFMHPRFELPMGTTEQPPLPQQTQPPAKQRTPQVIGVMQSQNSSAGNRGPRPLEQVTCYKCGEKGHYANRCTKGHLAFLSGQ

[2] = target: T2, StrepII-tagged ubiquitin-like domain of RBBP6 (residues 1-142) (human) (UniProt Q7Z6E9); experiment: pull-down; RBBP6UBL-SII co-expressed with a CPSF73 variant in Sf9 cells; cleared lysate on Strep-Tactin beads; 50 mM HEPES-NaOH pH 8.0, 300 mM NaCl, 1 mM TCEP, 2 mM Mg(OAc)2; stained gel
T2 sequence: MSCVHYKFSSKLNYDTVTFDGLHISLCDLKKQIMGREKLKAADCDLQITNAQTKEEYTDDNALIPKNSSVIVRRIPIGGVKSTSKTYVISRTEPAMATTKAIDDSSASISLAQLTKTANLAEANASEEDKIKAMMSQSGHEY

[3] = target: mCF lacking the N-terminal domain of symplekin (human) (UniProt Q9UKF6+Q9P2I0+Q92797); experiment: SEC; 2.5 µM CPSF, mCF or mCF_(symplekin ΔNTD) incubated with 10 µM SSU72 for 30 min on ice; Superose 6 Increase 3.2/300; HEPES-NaOH pH 8.0, 150 mM NaCl, 0.5 mM TCEP; peak fractions on SDS-PAGE; both purified
[4] = target: cleavage and polyadenylation specificity factor (CPSF), recombinant seven-subunit complex with hFip1 isoform 4 (human) (UniProt Q10570); experiment: SEC; 2.5 µM CPSF and 7.5 µM RBBP6 or its point mutants, without RNA; 30 min on ice; Superose 6 Increase 3.2/300; HEPES-NaOH pH 8.0, 50 mM NaCl, 0.5 mM TCEP; both purified
[5] = target: cleavage and polyadenylation specificity factor (CPSF), recombinant seven-subunit complex with hFip1 isoform 4 (human) (UniProt Q10570); experiment: condition: 2.5 µM CPSF, 7.5 µM RBBP6 mutant, 5 µM RNA; SEC; 2.5 µM CPSF and 7.5 µM RBBP6 or its point mutants with 5 µM 5'-FAM 41-nt L3 RNA; 30 min on ice; Superose 6 Increase 3.2/300; HEPES-NaOH pH 8.0, 50 mM NaCl, 0.5 mM TCEP; both purified

Molecule: CPSF30 isoform 2, recombinant (from UniProt O95639-2 1-244)
- binding [1]: binds

B1: hFip1 isoform 4, recombinant (protein, UniProt Q6UN15 1-28; Q6UN15 44-393)
chain: MSAGEVERLVSELSGGTGGDEEEEWLYGDENEVERPEEENASANPPSGIEDETAENGVPKPKVTETEDDSDSDSDDDEDDVHVTIGDIKTGAPQYGSYGTAPVNLNIKTGGRVYGTTGTKVKGVDLDAPGSINGVPLLEVDLDSFEDKPWRKPGADLSDYFNYGFNEDTWKAYCEKQKRIRMGLEVIPVTSTTNKITAEDCTMEVTPGAEIQDGRFNLFKVQQGRTGNSEKETALPSTKAEFTSPPSLFKTGLPPSRNSTSSQSQTSTASRKANSSVGKWQDRYGRAESPDLRRLPGAIDVIGQTITISRVEGRRRANENSNIQVLSERSATEVDNNFSKPPPFFPPGAPPTHLPPPPFLPPPPTVSTAPPLIPPPGK
- binding [1]: binds

B2: hFip1, full length, recombinant (protein, UniProt Q6UN15 1-594)
chain: MSAGEVERLVSELSGGTGGDEEEEWLYGGPWDVHVHSDLAKDLDENEVERPEEENASANPPSGIEDETAENGVPKPKVTETEDDSDSDSDDDEDDVHVTIGDIKTGAPQYGSYGTAPVNLNIKTGGRVYGTTGTKVKGVDLDAPGSINGVPLLEVDLDSFEDKPWRKPGADLSDYFNYGFNEDTWKAYCEKQKRIRMGLEVIPVTSTTNKITAEDCTMEVTPGAEIQDGRFNLFKVQQGRTGNSEKETALPSTKAEFTSPPSLFKTGLPPSRNSTSSQSQTSTASRKANSSVGKWQDRYGRAESPDLRRLPGAIDVIGQTITISRVEGRRRANENSNIQVLSERSATEVDNNFSKPPPFFPPGAPPTHLPPPPFLPPPPTVSTAPPLIPPPGFPPPPGAPPPSLIPTIESGHSSGYDSRSARAFPYGNVAFPHLPGSAPSWPSLVDTSKQWDYYARREKDRDRERDRDRERDRDRDRERERTRERERERDHSPTPSVFNSDEERYRYREYAERGYERHRASREKEERHRERRHREKEETRHKSSRSNSRRRHESEEGDSHRRHKHKKSKRSKEGKEAGSEPAPEQESTEATPAE
- binding [1]: binds

B3: CPSF73, full length (enzyme, UniProt Q9UKF6 1-684)
chain: MSAIPAEESDQLLIRPLGAGQEVGRSCIILEFKGRKIMLDCGIHPGLEGMDALPYIDLIDPAEIDLLLISHFHLDHCGALPWFLQKTSFKGRTFMTHATKAIYRWLLSDYVKVSNISADDMLYTETDLEESMDKIETINFHEVKEVAGIKFWCYHAGHVLGAAMFMIEIAGVKLLYTGDFSRQEDRHLMAAEIPNIKPDILIIESTYGTHIHEKREEREARFCNTVHDIVNRGGRGLIPVFALGRAQELLLILDEYWQNHPELHDIPIYYASSLAKKCMAVYQTYVNAMNDKIRKQININNPFVFKHISNLKSMDHFDDIGPSVVMASPGMMQSGLSRELFESWCTDKRNGVIIAGYCVEGTLAKHIMSEPEEITTMSGQKLPLKMSVDYISFSAHTDYQQTSEFIRALKPPHVILVHGEQNEMARLKAALIREYEDNDEVHIEVHNPRNTEAVTLNFRGEKLAKVMGFLADKKPEQGQRVSGILVKRNFNYHILSPCDLSNYTDLAMSTVKQTQAIPYTGPFNLLCYQLQKLTGDVEELEIQEKPALKVFKNITVIQEPGMVVLEWLANPSNDMYADTVTTVILEVQSNPKIRKGAVQKVSKKLEMHVYSKRLEIMLQDIFGEDCVSVKDDSILSVTVDGKTANLNLETRTVECEEGSEDDESLREMVELAAQRLYEALTPVH
- binding [2]: binds

B4: CPSF73 N-terminal nuclease domain (residues 1-460) (domain or fragment, UniProt Q9UKF6 1-460)
chain: MSAIPAEESDQLLIRPLGAGQEVGRSCIILEFKGRKIMLDCGIHPGLEGMDALPYIDLIDPAEIDLLLISHFHLDHCGALPWFLQKTSFKGRTFMTHATKAIYRWLLSDYVKVSNISADDMLYTETDLEESMDKIETINFHEVKEVAGIKFWCYHAGHVLGAAMFMIEIAGVKLLYTGDFSRQEDRHLMAAEIPNIKPDILIIESTYGTHIHEKREEREARFCNTVHDIVNRGGRGLIPVFALGRAQELLLILDEYWQNHPELHDIPIYYASSLAKKCMAVYQTYVNAMNDKIRKQININNPFVFKHISNLKSMDHFDDIGPSVVMASPGMMQSGLSRELFESWCTDKRNGVIIAGYCVEGTLAKHIMSEPEEITTMSGQKLPLKMSVDYISFSAHTDYQQTSEFIRALKPPHVILVHGEQNEMARLKAALIREYEDNDEVHIEVHNPRNTEAVTLNFRG
- binding [2]: binds weakly

B5: SSU72 (enzyme, human, UniProt Q9NP77 1-194, looked up)
chain: MPSSPLRVAVVCSSNQNRSMEAHNILSKRGFSVRSFGTGTHVKLPGPAPDKPNVYDFKTTYDQMYNDLLRKDKELYTQNGILHMLDRNKRIKPRPERFQNCKDLFDLILTCEERVYDQVVEDLNSREQETCQPVHVVNVDIQDNHEEATLGAFLICELCQCIQHTEDMENEIDELLQEFEEKSGRTFLHTVCFY
notes: SSU72, human; the coding region amplified from the synthetic full-length gene; also called human SSU72; phosphatase SSU72; source: E. coli BL21(DE3) Star, purified (HisTrap, 3C cleavage, Superdex 75); not shown: His6, N-terminal, cleaved
- binding [3]: no binding (tested: 2.5 µM mCF_(symplekin ΔNTD), 10 µM SSU72)

B6: RBBP6 (residues 1-335) Y228G (domain or fragment, UniProt Q7Z6E9 1-335)
chain: MSCVHYKFSSKLNYDTVTFDGLHISLCDLKKQIMGREKLKAADCDLQITNAQTKEEYTDDNALIPKNSSVIVRRIPIGGVKSTSKTYVISRTEPAMATTKAIDDSSASISLAQLTKTANLAEANASEEDKIKAMMSQSGHEYDPINYMKKPLGPPPPSYTCFRCGKPGHYIKNCPTNGDKNFESGPRIKKSTGIPRSFMMEVKDPNMKGAMLTNTGKYAIPTIDAEAGAIGKKEKPPFLPEEPSSSSEEDDPIPDELLCLICKDIMTDAVVIPCCGNSYCDECIRTALLESDEHTCPTCHQNDVSPDALIANKFLRQAVNNFKNETGYTKRLRKQ
- binding [4]: no binding (tested: 2.5 µM CPSF, 7.5 µM RBBP6 mutant, no RNA)
- binding [5]: no binding

B7: RBBP6 (residues 1-335) P195G (domain or fragment, UniProt Q7Z6E9 1-335)
chain: MSCVHYKFSSKLNYDTVTFDGLHISLCDLKKQIMGREKLKAADCDLQITNAQTKEEYTDDNALIPKNSSVIVRRIPIGGVKSTSKTYVISRTEPAMATTKAIDDSSASISLAQLTKTANLAEANASEEDKIKAMMSQSGHEYDPINYMKKPLGPPPPSYTCFRCGKPGHYIKNCPTNGDKNFESGPRIKKSTGIGRSFMMEVKDPNMKGAMLTNTGKYAIPTIDAEAYAIGKKEKPPFLPEEPSSSSEEDDPIPDELLCLICKDIMTDAVVIPCCGNSYCDECIRTALLESDEHTCPTCHQNDVSPDALIANKFLRQAVNNFKNETGYTKRLRKQ
- binding [4]: no binding (tested: 2.5 µM CPSF, 7.5 µM RBBP6 mutant, no RNA)
- binding [5]: no binding

From PMC8887125, “RBBP6 activates the pre-mRNA 3′ end processing machinery in humans” (Genes & Development, 2022)
